Test results published in PubChem BioAssay AID2675 (National Center for Advancing Translational Sciences (NCATS), 2010).
About 100 (0.036%) of roughly 280,000 compounds were called active. The shares of active, inactive and inconclusive entries below differ from those in the screen. The call rests on the fitted dose curve; in most records, active means well fitted inhibition curve with a large enough effect in the signal ratio, with a control signal flat (not every such curve was filed as active); inconclusive means small, poorly fitted or top-dose-only effect, or effect the other way, or a change in a side signal; inactive means no such curve, though single readings can be large or run the other way; the % refers to the signal ratio. A potency beside an inconclusive call is a rough fit, not a confirmed value. A note “side channel” means that the fit belongs to a control or component signal, not to the main read-out.

Each compound was assayed against Muscleblind-like protein 1 (Homo sapiens) (UniProt Q9NR56) (assay: qHTS Assay for Inhibitors of MBNL1-poly(CUG) RNA binding). Conditions: TR-FRET MBNL1-His/biotin-(CUG)12 binding, 665/545 ratio; activity change, negative = inhibition: at 57.5 µM (top of the series).
Chain of UniProt Q9NR56 (Q9NR56 whole entry, looked up): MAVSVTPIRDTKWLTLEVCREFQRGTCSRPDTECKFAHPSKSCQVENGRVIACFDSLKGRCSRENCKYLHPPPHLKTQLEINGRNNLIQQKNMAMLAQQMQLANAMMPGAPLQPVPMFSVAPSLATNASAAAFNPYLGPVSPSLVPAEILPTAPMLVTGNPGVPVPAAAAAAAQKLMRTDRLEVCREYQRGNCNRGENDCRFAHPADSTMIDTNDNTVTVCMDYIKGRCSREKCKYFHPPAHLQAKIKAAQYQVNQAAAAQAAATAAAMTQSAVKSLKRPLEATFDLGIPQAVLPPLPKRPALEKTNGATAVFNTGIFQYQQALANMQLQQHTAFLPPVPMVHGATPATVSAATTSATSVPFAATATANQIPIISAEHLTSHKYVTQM
Procedure, shortened: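 Compound titration spanned 92 nM–58 uM against the MBNL1-His/biotin-(CUG)12 complex. After 60 min at room temperature with 5 nM streptavidin-XL665 and 0.055 ng/ul terbium anti-His, ratiometric 665/545 nm emission (Ex 340 nm) normalized to controls.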
On the % scale 0 is the no-effect control and ±100 the full control effect; potency means the concentration at half of the fitted maximal effect; tags describe the fitted curve by direction and shape or compound fluorescence and quenching.

For `Cc1ccc(-n2[nH]c(C)c(/C=N/NC(=O)c3ccc([N+](=O)[O-])cc3)c2=O)c(C)c1`, which “activity change, negative = inhibition” value is on record?
The value was inactive: 12.9%.

Which “activity change, negative = inhibition” value does the source give for `CCOC(=O)N1CCC(c2cc(=O)n3[nH]c(C)c(-c4ccc(F)cc4)c3n2)CC1` here?
Its value is inactive: -1.87%.

With `COc1ccccc1N1CCN(C(=O)c2cc(=O)c3cc(C)ccc3o2)CC1` as the compound, how does the Potency read?
The Potency was inconclusive: 2.51 µM [quencher, side channel, full curve, poor fit].

How did the Potency turn out when `COc1ccc(/C=N/N2C(=O)C3C4C=CC(C4)C3C2=O)cc1[N+](=O)[O-]` (stereo unspecified) was run?
The Potency was inconclusive: 20 µM [quencher, side channel, partial curve].

For `CN(Cc1ccccc1)c1ccc(N2C(=O)CCC2=O)cc1[N+](=O)[O-]`, which Potency is on record?
Its Potency is inconclusive: 7.94 µM [quencher, side channel, partial curve].

Which Potency does the source give for `Cc1oc(=O)c(NC(=O)c2ccccc2)cc1C(N)=O` here?
Its Potency is inconclusive: 39.8 µM [quencher, side channel, single point].

For `Cc1ccc(NC(=O)CN(C)C(=O)Cn2ncc(Cl)c(Cl)c2=O)cc1`, which Potency is on record?
The Potency was inconclusive: 44.7 µM [quencher, side channel, single point].

Which Potency does the source give for `c1cn2c(NC3CCCC3)c(-c3ccc(N4CCOCC4)cc3)nc2cn1` here?
Its Potency is inconclusive: 15.8 µM [quencher, side channel, partial curve].

With `COc1cc(/C=N\NC(=O)c2cccc(Cl)c2)ccc1Oc1ccc([N+](=O)[O-])cn1` as the compound, how does the Potency read?
The Potency was inconclusive: 14.1 µM [quencher, side channel, partial curve].

With `Cc1nc(N)sc1C(=O)N/N=C/c1c[nH]c2ccccc12` as the compound, how does the Potency read?
Its Potency is inconclusive: 17.8 µM [quencher, side channel, single point].

`COC(=O)c1ccc(Nc2c([N+](=O)[O-])c(=O)oc3ccccc23)cc1` was tested. Which Potency did it give?
The Potency was inconclusive: 28.2 µM [quencher, side channel, partial curve].

How did the Potency turn out when `CCCCOc1ccc(C(=O)Nc2ccc(C)cc2[N+](=O)[O-])cc1` was run?
The Potency was inconclusive: 8.91 µM [quencher, side channel, single point].

Which Potency does the source give for `O=C(NC(=S)N1CCCc2ccccc21)c1ccc([N+](=O)[O-])cc1` here?
Its Potency is inconclusive: 17.8 µM [quencher, side channel, partial curve].

`NC(=O)c1sc2nccc(Nc3ccccc3)c2c1N` was tested. Which Potency did it give?
The Potency was inconclusive: 17.8 µM [quencher, partial curve].

How did the “activity change, negative = inhibition” value turn out when `CCN1/C(=C/C=C/c2oc3ccc4ccccc4c3[n+]2CC)Oc2ccc3ccccc3c21` was run?
Its value is inactive: 9.52%.

How did the Potency turn out when `COc1ccc(/C=C/C(=O)Nc2ccc(OC)cc2[N+](=O)[O-])cc1` was run?
The Potency was inconclusive: 14.1 µM [quencher, side channel, single point].

Which Potency does the source give for `CC1CN(S(=O)(=O)c2ccc(C(=O)Nc3nnc(-c4ccco4)o3)cc2)CC(C)O1` (stereo unspecified) here?
The Potency was inconclusive: 0.794 µM [fluorescent, side channel, single point].

With `O=C(O)c1ccc(Cl)cc1Nc1nc2cc(Cl)ccc2o1` as the compound, how does the “activity change, negative = inhibition” value read?
Its value is inactive: -6.08%.

`CC(C)(C)[C@H]1C=C(C(=O)N2CCOCC2)O[C@@H](OCc2ccc(CO)cc2)C1` was tested. Which “activity change, negative = inhibition” value did it give?
The value was inactive: 0.645%.

Which “activity change, negative = inhibition” value does the source give for `COc1ccc(NC(=O)c2nc[nH]c2C(=O)N[C@H](C)c2ccccc2)cc1` here?
Its value is inactive: -4.97%.

How did the Potency turn out when `CNc1ccc(Br)cc(C(=O)/C=C/c2cccc(OC)c2OC)c1=O` was run?
The Potency was inconclusive: 39.8 µM [quencher, single point].

For `O=C(NNC(=O)C1CC2CCC1C2)c1ccccc1` (stereo unspecified), which Potency is on record?
Its Potency is inconclusive: 0.1 µM [fluorescent, side channel, full curve].

Which Potency does the source give for `O=C(Nc1cccc2oc(=O)ccc12)c1ccc([N+](=O)[O-])cc1[N+](=O)[O-]` here?
Its Potency is inconclusive: 2.82 µM [quencher, side channel, partial curve].

With `CCCCN=C1C([N+](=O)[O-])=CC=C2C1=NC1(CCCCC1)N2O` as the compound, how does the Potency read?
The Potency was inconclusive: 1.58 µM [quencher, side channel, full curve].

How did the Potency turn out when `Cc1cccc(N2CCN(C(=O)c3ccccc3NC(=O)C3CCCCC3C(=O)O)CC2)c1` (stereo unspecified) was run?
Its Potency is inconclusive: 1.26 µM [fluorescent, side channel, full curve, poor fit].

With `CCN(CC)S(=O)(=O)c1ccc2c(c1)nc(SCC(=O)N1CCOCC1)n2-c1ccccc1OC` as the compound, how does the Potency read?
The Potency was inconclusive: 100 µM [inhibitor, single point].

How did the Potency turn out when `O=C(N/N=C\c1cccs1)c1ccccc1-n1cccc1` was run?
Its Potency is inconclusive: 25.1 µM [quencher, side channel, partial curve].

Which Potency does the source give for `O=[N+]([O-])c1ccc(NCCCNS(=O)(=O)c2ccccc2)cc1` here?
Its Potency is inconclusive: 25.1 µM [quencher, side channel, partial curve].

`CCSC1=N/C(=C\c2cccnc2)C(=O)N1c1ccccc1` was tested. Which Potency did it give?
Its Potency is inconclusive: 14.1 µM [quencher, partial curve].

`COc1ccccc1C(=O)C1Nc2ccccc2-c2nnc(SC)nc2O1` (stereo unspecified) was tested. Which Potency did it give?
The Potency was inconclusive: 31.6 µM [quencher, single point].

`Cc1ccc(NC2CC(=O)N(c3cccc([N+](=O)[O-])c3)C2=O)cc1` (stereo unspecified) was tested. Which Potency did it give?
The Potency was inconclusive: 22.4 µM [quencher, side channel, single point].

For `O=C(c1cccc(Br)c1)N1CCN(S(=O)(=O)N2CCCCCC2)CC1`, which Potency is on record?
The Potency was inconclusive: 7.08 µM [fluorescent, side channel, single point].

For `COc1ccc(OC)c(NC(=O)c2csc(Cl)c2OC)c1`, which “activity change, negative = inhibition” value is on record?
The value was inactive: -1.7%.

With `O=C(/C=C/c1cccc([N+](=O)[O-])c1)NC1CC2CCC1C2` (stereo unspecified) as the compound, how does the Potency read?
The Potency was inconclusive: 0.316 µM [quencher, side channel, partial curve, poor fit].

How did the Potency turn out when `O=c1cc(-c2ccc(O)cc2)oc2cc(O[C@@H]3O[C@H](CO)[C@@H](O)[C@H](O)[C@H]3O[C@@H]3OC[C@](O)(CO)[C@H]3O)cc(O)c12` was run?
Its Potency is inconclusive: 22.4 µM [quencher, side channel, single point].

For `CCCCC1=CC2=CC(=O)C(C)(OC(=O)CC)C(=O)C2=CN1CCCCO` (stereo unspecified), which Potency is on record?
The Potency was inconclusive: 15.8 µM [quencher, side channel, single point].
